Test results reported in PMC6919601, “Identification of Plasmodium dipeptidyl aminopeptidase allosteric inhibitors by high throughput screening” (PLoS ONE, 2019).
Values joined by “and” are separate entries in the source; they are usually repeats but may differ in a detail not shown here. Identical values can stand only once. Hit rate of the full screen: of about 110,000 compounds, about 230 (0.21%) showed an effect of 50% or more. The list shows a part of the results.

Target: DPAP1 (Plasmodium falciparum, UniProt Q8IIJ9)
Sequence (Q8IIJ9 whole entry, looked up): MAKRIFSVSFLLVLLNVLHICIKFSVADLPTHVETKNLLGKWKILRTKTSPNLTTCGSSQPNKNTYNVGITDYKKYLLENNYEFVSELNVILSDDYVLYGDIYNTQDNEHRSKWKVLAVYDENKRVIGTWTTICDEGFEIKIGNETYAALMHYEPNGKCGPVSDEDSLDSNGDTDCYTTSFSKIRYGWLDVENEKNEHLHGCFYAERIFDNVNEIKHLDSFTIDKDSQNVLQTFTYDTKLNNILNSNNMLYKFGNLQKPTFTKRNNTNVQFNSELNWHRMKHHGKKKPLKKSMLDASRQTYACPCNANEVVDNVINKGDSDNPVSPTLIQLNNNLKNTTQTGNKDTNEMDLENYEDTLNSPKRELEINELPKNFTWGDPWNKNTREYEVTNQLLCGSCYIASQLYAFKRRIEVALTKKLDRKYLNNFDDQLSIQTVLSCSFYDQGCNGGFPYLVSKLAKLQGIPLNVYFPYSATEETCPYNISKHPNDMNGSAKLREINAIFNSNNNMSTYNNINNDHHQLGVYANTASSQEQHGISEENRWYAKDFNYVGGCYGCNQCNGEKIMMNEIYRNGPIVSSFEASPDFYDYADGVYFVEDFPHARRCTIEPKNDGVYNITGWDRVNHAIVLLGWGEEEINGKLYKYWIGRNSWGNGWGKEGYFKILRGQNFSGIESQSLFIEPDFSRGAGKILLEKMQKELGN
Assay: primary screen, percent inhibition; read by cleavage of a fluorogenic dipeptide substrate; higher = more effect of the substance
Parameters: species or system P. falciparum D10 trophozoite lysates; single well
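Also: 30 min substrate incubation versus DMSO and 10 µM JCP410 controls.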

Structure (SMILES) | % Inhibition @ 10 uM
COc1cc2oc3c(c2cc1O)CCCC3 | -13.7%
Clc1ccccc1CNCc1cccnc1 | 0.98%
O=C(NCc1cccnc1)C1CCN(c2nnc(-n3cccc3)s2)CC1 | -0.522%
COc1cc(NC(=O)c2ccc(C)o2)c(OC)cc1Cl | -5.13%
CC1CCCN(S(=O)(=O)c2ccc3[nH]c4c(c3c2)CCCC4)C1 (stereo not shown) | -1.95%
C(=C\c1ccnc2ccccc12)/c1ccc2c(c1)OCO2 | 4.67%
O=C(NCCN1C(=O)C2C3C=CC(C3)C2C1=O)OC1CCCCC1 (stereo not shown) | -1.17%
O=C(Nc1ccccc1F)c1cc2nc(C(F)F)cc(C(F)F)n2n1 | -3.72%
CCCOc1ccccc1/C=c1/sc2ncnn2c1=O | 3.34%
CN(C)c1ccc(C=C2C(=O)NC(=O)NC2=O)cc1Br | -1.05%
Cn1cc(CCC(=O)NC2CCN(Cc3ccccc3)CC2)c2ccccc21 | -3.44%
COc1ccc(NC(=O)C2CCCCC2C(=O)O)cc1 (stereo not shown) | -2.65%
O=C(N/C(=C\c1ccco1)C(=O)N1CCCCCCC1)c1ccccc1 | -0.725%
Cc1ccc(CNC(=O)c2nnc(Cc3ccc(C)cc3)o2)cc1 | 0.974%
c1cc2c[nH]nc2cc1NC1CC2CCC1C2 (stereo not shown) | 5.37%
CSc1ncc(C(=O)NCCN(C)C)c(-c2ccccc2)n1 | -1.43%
CCCCOc1ccc(C(=O)NCc2cn3ccc(C)cc3n2)cc1 | 3.3%
Cc1ccc(C)c(Cn2c(C)c(CNC3CCC(C)CC3)c(C(=O)O)c2C)c1 (stereo not shown) | -5.49%
CCOc1ccc(NC(=O)c2c(NC(=O)CCC(=O)O)sc3c2CCCC3)cc1 | 4%
Cc1cc2c(cn1)/C(=C/c1ccccc1)c1ccccc1-2 | -3.48%
CC1CCCCN1C(=O)c1ccc(Br)cc1 (stereo not shown) | 5.32%
CCN(CC)CC(C)CNC(=O)c1cc(O)nc2ccc(S(=O)(=O)N3CCCCCC3)cc12 (stereo not shown) | 2.05%
C=CCC1(CC=C)C(=O)N(C)C(=O)N(C)C1=O | -2.41%
O=c1oc2ccc(Br)cc2cc1-c1nc(-c2cccs2)no1 | 4.29%
COc1ccc(NC(=O)c2cccnc2)c(OC)c1 | -1.22%
CCOC(=O)/C(C#N)=C/c1ccc(-c2ccccc2OC)o1 | -11.3%

Structure (SMILES) | % Inhibition @ 10 uM
CC12C=CC(C)(O1)C1C(=O)N(c3ccc(Cl)cc3)C(=O)C12 (stereo not shown) | -0.63%
O=C(NCc1ccccc1Cl)c1cc2c(s1)CS(=O)C2 (stereo not shown) | -0.406%
Cc1cc(O)c(C2=NCCSC(c3cc(Br)ccc3O)C2)c(=O)o1 (stereo not shown) | 4.89%
CC(=O)CCc1c(C)nc2ccc(C)cc2c1S | 2.92%
COc1ccc(C)c(N2C(=O)CC(N3CCC(C(N)=O)CC3)C2=O)c1 (stereo not shown) | 2.86%
Cc1[nH]nc(N)c1C#N | 0.0882%
Cn1c(=O)c2c(ncn2CC(=O)Nc2ccncc2)n(C)c1=O | 1.92%
Cc1c(Cl)cccc1NC(=O)CN1CCN(CCO)CC1 | 3.05% and -0.519%
CCc1nn(CC(=O)NCCCN(C)C2CCCCC2)c(=O)c2cc3sccc3n12 | -7.1%
O=C1CCCC2=C1C(c1ccco1)C1=C(O)c3ccccc3C1=N2 (stereo not shown) | 4.28%
CC(=O)c1ccc(-c2ccc(/C=C3/SC(=O)N(CC(=O)N4CCCC4)C3=O)o2)cc1 | -5.66%
O=C(CSc1nc(-c2ccc(F)cc2)cc(C(F)(F)F)n1)NCc1cccnc1 | -2.09%
C=CCOc1ccc(/C=C2/SC(=O)N(CN3CCCCC3)C2=O)cc1OC | 2.65%
CC1CCN(c2nc3ccc(C(=O)NC4CCCCC4)cc3s2)CC1 | 6.31%
COc1cccc(/C=C2\SC(=O)N(CC(=O)N3CCN(c4ccccc4)CC3)C2=O)c1O | 2.01%
Cc1sc2ncn(CC(=O)O)c(=O)c2c1S(=O)(=O)N1CCOCC1 | 0.231%
CCOC(=O)c1c(NC(=O)CSc2nc3ccccc3s2)sc2c1CCN(C)C2 | 7.1%
Cc1ccc(C(=O)Nc2nc(-c3ccc4c(c3)Cc3ccccc3-4)cs2)cc1 | 2.22%
COc1ccc(S(=O)(=O)N2CCn3c2nc2ccccc23)cc1 | 2%
CCOc1ccc(S(=O)(=O)N(CC(=O)N(C)C)c2ccc(C)cc2)cc1 | 0.324%
O=C(CCCOc1ccccc1)Nc1nccs1 | -12.3%
CCC1CCCCN1C(=O)CSc1nc2ncccc2o1 (stereo not shown) | -5.79%
COc1ccccc1C(=O)Nc1cccc(C(C)=O)c1 | -6.17%
CCn1nccc1C(=O)NC1CCCCCC1 | 3.9%
Cn1cnc([N+](=O)[O-])c1C(=O)Nc1cccc([N+](=O)[O-])c1 | -0.424%
O=C(Nc1ccccc1C(=O)N1CCNCC1)c1ccco1 | -6.25%

Structure (SMILES) | % Inhibition @ 10 uM
Cc1c(C(=O)N2CCC3(CC2)OCCO3)oc2ccc(S(=O)(=O)N(C)C3CCCCC3)cc12 | 14.5%
CC(C)(C)c1ccc(CN2C3=NCCCN3c3ccccc32)cc1 | -5.16%
CCC(C)N1CCN(Cc2cccc(C)c2)CC1 (stereo not shown) | -7.18%
CC1CCCCC1NCc1ccco1 (stereo not shown) | 1.84%
CCN(CC)CCCNC(=O)c1ccc(N2Cc3cccc(OC)c3Oc3ncccc32)s1 | -4.52%
Cc1ccccc1C(=O)NCC(C)NC(=O)c1ccccc1C (stereo not shown) | 0.408%
Cc1cc(Oc2c(C(F)(F)F)oc3c(CN4CCOCC4)c(O)ccc3c2=O)cc(C)c1Cl | -4.85%
O=C(c1ccco1)N1CCN(S(=O)(=O)c2ccc(-c3cc(C(F)(F)F)no3)s2)CC1 | 1.2%
O=C(c1ccco1)N1CCN(CCN2CCCCC2)CC1 | 9.75%
CCN(CC)CCn1c2ccccc2n2c(C(C)=O)c(C)nc12 | 2.14%
Oc1nc(N2CCCCC2)nc2ncn(Cc3ccccc3)c12 | 5.3%
O=S(=O)(c1ccc(Cl)nc1)N1CCc2ccccc21 | -1.88%
CCCCOc1ccc(/C=C(\C#N)c2nc(-c3ccc(Cl)cc3)cs2)cc1 | -0.736%
O=S(=O)(c1cnccc1Nc1cccc(C(F)(F)F)c1)N1CCOCC1 | 0.0285%
O=C(CCc1ccc(S(=O)(=O)NCc2ccccc2)cc1)NC1CCCCC1 | 3.72%
COc1ccc(NC(=O)c2ccccn2)cc1 | 1.39%
Cc1nc2nc(C)c(CCC(=O)NCCC3=CCCCC3)c(C)n2n1 | 1.26%
O=S(=O)(Nc1cccc2cccnc12)c1ccc2ccccc2c1 | -1.28%
COc1ccc2nc(O)c(-c3ccccc3)c(O)c2c1 | -1.6%
COc1ccc([C@H]2NCC[C@@]3(O)CCCC[C@H]23)c(OC)c1OC | -5.5%
COc1cc(C(=O)N2N=C(C(F)F)CC2(O)C(F)F)ccc1O (stereo not shown) | 9.65%
CC(=O)Nc1ccc(Nc2nc(-c3c(C)nc4ccccn34)cs2)cc1 | -4.06%
Cc1cc(C)n(CCc2nc3c4ccccc4nc(SCC(=O)c4ccc(F)cc4)n3n2)n1 | 3.38%
CN1CCN(c2c(C(=O)c3ccccc3)cnc3ccc(Cl)cc23)CC1 | -7.48%
Cc1cc(Cl)ccc1OCC(O)CN1CCCC1 (stereo not shown) | -2.97%
O=C(Nc1cccc(C(F)(F)F)c1)C12CC3CC(CC(C3)C1)C2 | -5.81%

Structure (SMILES) | % Inhibition @ 10 uM
Cc1ccc2[nH]c(C)c(CCC(=O)NC3CCCCC3)c2c1 | -1.86%
COc1ccc(Nc2cccc(Cl)c2)c(C(=O)O)c1 | 1.72%
CCOC(=O)c1c(NC(=O)c2cc3nc(-c4ccco4)cc(C(F)(F)F)n3n2)sc(C)c1C | 0.64%
OCCCNc1c2c(nc3ccccc13)CCCC2 | -4.6%
CC(NC(=O)Cn1ncc2ccsc2c1=O)C12C[C@H]3C[C@@H](C1)C[C@@H](C2)C3 (stereo partly shown) | 0.236%
CCc1ccccc1/N=C/C1=C(O)CC(c2ccccc2)CC1=O (stereo not shown) | 0.673%
Cc1ccc2onc(CNC(=O)NC(C)CCc3ccco3)c2c1 (stereo not shown) | 5.27%
O=C(O)C#CC(O)(c1ccccc1)c1ccccc1 | -3.62%
Cc1cccc(C)c1NC(=O)Nc1ccc(Cl)c(Cl)c1 | -5.9%
Oc1ccc(/C=C/c2cc(O)cc(O)c2)cc1 | 0.76%
CN(C)c1ccc(C=C2C(=O)NC(=O)NC2=O)cc1 | -5.5%
CCCCNC(=O)C(=O)c1c(O)[nH]c2ccccc12 | 2.56%
CC(CCc1ccc(O)cc1)NC1CCCCCC1 (stereo not shown) | -1.56%
CCC(C)Sc1nc2c(c(=O)[nH]c(=O)n2C)n1CC(O)COc1ccc(Cl)cc1 (stereo not shown) | 1.4%
CN1CCN(Cc2c(NC(=O)c3ccccc3)sc3c2CCCC3)CC1 | 0.222%
COc1ccc(S(=O)(=O)Nc2cc(C)ccc2C)cc1 | 3.47%
CCn1cc(C(=O)N2CCN(C3CCCCC3)CC2)c2cc(OC)c(OC)cc2c1=O | -7.1%
CCN1CCN(C2CCN(Cc3ccc(OC)c(OC)c3OC)CC2)CC1 | -4.84%
CC(C)Cc1ccc(S(=O)(=O)NC2CCN(Cc3ccccc3)CC2)cc1 | -4.07%
O=C(Nc1ccc(N2CCOCC2)cc1)C1(S(=O)(=O)c2ccccc2)CC1 | -4.16%
Cc1ccc(CNC(=O)CN(C)S(=O)(=O)c2ccc3[nH]c(-c4ccccc4)nc3c2)cc1 | -5.61%
Cc1cccn2c(=O)c(/C=C(\C#N)C(=O)NCC3CCCO3)c(Oc3ccccc3)nc12 (stereo not shown) | 0.315%
CCCNC(=O)CCn1c(-c2ccc(F)cc2)cc(C(C)=O)c1C | -9.31%
CC1CC(C)CN(C(=O)CNC(=S)N2CC3CC(C2)c2cccc(=O)n2C3)C1 (stereo not shown) | 4.36%
C=CCOc1c(CNc2cccc(C(=O)O)c2)cccc1OC | -1.61%
